In all, about 380,000 compounds went through this assay and about 170 (0.045%) were called active. The inconclusive results got no clear call from the source; some entries with a clear call stand among them for comparison. Calls come from the whole dose curve; as a rule, active = well fitted inhibition curve with a large enough effect; inconclusive = small, poorly fitted or top-dose-only effect; inactive = no such curve, though single readings can be large or run the other way. A potency beside an inconclusive call is a rough fit, not a confirmed value.
target: Phosphoglycerate kinase, glycosomal (Trypanosoma brucei brucei) (UniProt P07378); assay: qHTS Assay to Find Inhibitors of Phosphoglycerate Kinase; conditions: PGK/GAPDH coupled, Kinase-Glo luminescence, 60 min; series mostly up to 57.5 µM; activity change, negative = inhibition: at the top concentration; note: nearly all actives have a fitted effect of over 60% in size
Procedure, shortened: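 Luminescent ATP detection (Kinase-Glo Plus) follows a 60-minute room-temperature incubation, with wells lacking PGK as controls. Buffer: 100 mM TEA (pH 7.6), 5 mM MgCl2, 0.01% Tween-20. Coupling enzyme GAPDH (100 nM final) supplies unstable 1,3-BPG in-well.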
% is set by controls: 0 for no effect and ±100 for the full control effect; potency is the fitted concentration of half-maximal effect; tags give direction and shape of the fitted curve.

Activity change, negative = inhibition, inactive:
COc1ccccc1-c1cn[nH]c(=S)n1 -0.936%
O=C(CSc1ncccn1)N1CCN(C(c2ccccc2)c2ccccc2)CC1 -9.76%
CC(=O)c1ccc(N2CCC(C)CC2)c(F)c1 -6.84%
CCCCN(C(=O)COC(=O)CSc1ccc([N+](=O)[O-])cc1)c1c(N)n(CCC)c(=O)[nH]c1=O -7.87%
C=C(C)C(=O)N1CC2(CC(c3cccc(NC(=O)/C=C\C=C/C)c3)=NO2)C[C@H]1C(N)=O (stereo not given in full) -0.906%
COc1cccc(CNC(=O)CCc2c(C)c3cc4c(C)coc4c(C)c3oc2=O)c1 -0.0159%
Cc1ccc(CCNC(=O)c2ccc(NC(=O)N3CCSc4ccccc43)cc2)cc1 -4.52%
Cc1ccc(O)c(C(=O)c2cnn(C(=O)COc3ccc(Cl)cc3)c2)c1 1.83%
O=C(COc1ccccc1)NNC(=O)c1cc2ccccc2o1 -1.65%
O=[N+]([O-])c1ccc(Cl)c(S(=O)(=O)Nc2cccc(-c3ccc(N4CCCC4)nn3)c2)c1 -6.62%
O=C(C1=C(O)C(=O)N(c2nccs2)C1c1ccccc1)c1cc2ccccc2o1 (stereo not given) 2.38%
COc1ccc(NC(=O)c2cccc(N3CCCS3(=O)=O)c2)cc1 -4.4%
Cc1c(Cl)cccc1NC(=O)N1CCN(Cc2cc(=O)n3nc(-c4ccccc4F)sc3n2)CC1 4.09%

Potency, inconclusive:
COC(=O)c1sccc1NC(=O)Nc1ccc(C)c(C)c1 31.6 µM [inhibitor, single point]
O=C(NCCCCc1ccccc1)c1ccc(F)cc1 3.16 µM [inhibitor, single point]
CC(=O)Nc1ccc(N2C(=O)c3cccc4c(O)ccc(c34)C2=O)cc1 39.8 µM [inhibitor, single point]
CC1(C)C(/C=C/C=C/C=C/C=C2\N(CCCCS(=O)(=O)O)c3ccc4ccccc4c3C2(C)C)=[N+](CCCCS(=O)(=O)[O-])c2ccc3ccccc3c21 28.2 µM [inhibitor, single point]
O=C1CC(=O)N(Cc2ccco2)C(=S)N1 17.8 µM [inhibitor, partial curve, poor fit]
O=C(c1ccccc1)n1c(=S)nc2ccccn21 28.2 µM [inhibitor, partial curve, poor fit]
Cc1cccc(NC(=S)NCC(c2ccccc2)N(C)C)c1 (stereo not given) 11.2 µM [inhibitor, partial curve, poor fit]
Nc1cccc(-c2nc3ccc(N)cc3s2)c1 20 µM [inhibitor, single point]
O=C(O)c1ccc2nc(-c3ccco3)c(-c3ccco3)nc2c1 25.1 µM [inhibitor, single point]
O=C(Nc1ccc(OCc2ccccc2)cc1)Nc1ccccc1C(=O)NCCCN1CCOCC1 14.1 µM [inhibitor, partial curve, poor fit]
CCOc1ccc(NC(=O)CCS(=O)(=O)c2ccc(Br)cc2)cc1 11.2 µM [inhibitor, partial curve, poor fit]
CCOc1ccc(N=Cc2c(C)[nH]n(-c3nc4ccccc4[nH]3)c2=O)cc1 39.8 µM [inhibitor, single point]
COc1c(-c2ccc(O)c(O)c2)oc2cc(O)cc(O)c2c1=O 25.1 µM [inhibitor, partial curve, poor fit]
CC(=O)NC1C(=O)N(CCN2CCOCC2)c2ccc(Cl)cc21 (stereo not given) 31.6 µM [inhibitor, single point]
O=C(N/N=C/c1c(O)ccc2ccccc12)c1ccc(Br)o1 22.4 µM [inhibitor, partial curve, poor fit]
Cc1ccc(NC(=O)CN(C)C(=O)c2cccc(-n3cccc3)c2)cc1 15.8 µM [inhibitor, partial curve, poor fit]
Cc1nc(C)n(CC(C)C(=O)N2CCN(S(=O)(=O)c3ccc(Cl)cc3)CC2)n1 (stereo not given) 25.1 µM [inhibitor, single point]
CC(C)(Oc1ccc(Cl)cc1)C(=O)Nc1nc2ccc(S(C)(=O)=O)cc2s1 20 µM [inhibitor, partial curve, poor fit]
O=C(Oc1ccc(-c2cnc3ccccc3n2)cc1)c1ccco1 31.6 µM [inhibitor, partial curve]
Clc1nc(Oc2ccccc2)nc(-c2cn(-c3ccccc3)c3ccccc23)n1 20 µM [inhibitor, partial curve, poor fit]
O=C(CCC1N=C2c3ccccc3N=C(SCC(=O)NCc3ccco3)N2C1=O)NCc1ccco1 (stereo not given) 15.8 µM [inhibitor, partial curve, poor fit]
CC(Cc1c[nH]c2ccccc12)C(=O)NCc1ccco1 (stereo not given) 17.8 µM [inhibitor, partial curve, poor fit]
CCOc1ccccc1NC(=O)CN1C(=O)C(=O)N(Cc2ccco2)C1=O 28.2 µM [inhibitor, partial curve, poor fit]
O=C(CC1Sc2ccccc2NC1=O)Nc1cccc(C(=O)O)c1 (stereo not given) 22.4 µM [inhibitor, single point]
CCOC(=O)CN1C(=O)S/C(=C\c2ccc(-c3ccc(C(=O)O)c(Cl)c3)o2)C1=O 31.6 µM [inhibitor, single point]
N=C1/C(=C/c2ccc(-c3cccc(C(=O)O)c3)o2)C(=O)N=C2SC=C(c3ccccc3)N12 28.2 µM [inhibitor, partial curve]
COc1ccc(/C=C/C(=O)NC(=S)Nc2cc([N+](=O)[O-])ccc2O)cc1OC 39.8 µM [inhibitor, partial curve, poor fit]
CCN1C=CC(=C2C(=O)c3ccccc3C2=O)C=C1 15.8 µM [inhibitor, partial curve, poor fit]
Cc1ccc(S(=O)(=O)N2CCOCC2)cc1NC(=O)COC(=O)COc1ccc(C#N)cc1 8.91 µM [inhibitor, single point]
COc1ccc(-n2cccc2/C=C2\C(=N)N3N=C(c4ccco4)SC3=NC2=O)cc1 5.01 µM [inhibitor, full curve]
Cc1ccccc1NC(=O)c1cc(-c2ccco2)nc2ccccc12 17.8 µM [inhibitor, partial curve, poor fit]
Oc1ccc(N=Cc2ccc(OCc3ccccc3)cc2)cc1 28.2 µM [inhibitor, partial curve, poor fit]
CCN1/C(=C/C=C/c2sc3ccccc3[n+]2CC)Sc2ccccc21 17.8 µM [inhibitor, partial curve, poor fit]
O=C(COc1ccc(/C=N/NC(=O)c2ccccc2O)cc1)Nc1ccccc1 20 µM [inhibitor, partial curve, poor fit]
Cc1ccc(C)c(OCCn2ccnc2)c1 15.8 µM [inhibitor, partial curve, poor fit]
O=C(O)C1Nc2c(Cl)cc(Cl)c(Cl)c2C2C=CCC12 (stereo not given) 39.8 µM [inhibitor, single point]
COc1ccc(NC(=O)OC(C)C)cc1 31.6 µM [inhibitor, partial curve, poor fit]
O=c1/c(=C\c2cc([N+](=O)[O-])cc([N+](=O)[O-])c2O)sc2nc3ccccc3n12 22.4 µM [inhibitor, single point]
CCN1CCCc2cc(CN(CCN3CCOCC3)C(=S)Nc3cccc(OC)c3)ccc21 25.1 µM [inhibitor, partial curve, poor fit]
Cc1ccc(/C=c2\sc3nc(-c4ccco4)nn3c2=O)o1 15.8 µM [inhibitor, partial curve, poor fit]
O=C(O)c1ccc(-n2cccc2/C=N\NC(=O)c2cc3cc(Br)ccc3o2)cc1 14.1 µM [inhibitor, partial curve]
Cc1ccc(Cn2c(C(C)Nc3nc(-c4ccc(C)cc4)cs3)nc3cc(Cl)c(Cl)cc32)cc1 (stereo not given) 39.8 µM [inhibitor, single point]
N#Cc1ccccc1S(=O)(=O)N1CCN(C(=O)c2cc3c(s2)CCC3)CC1 25.1 µM [inhibitor, partial curve]
C=CCN1CCN(C(=O)CSc2ccccc2)CC1 28.2 µM [inhibitor, single point]

Potency, active:
O=S(=O)(O)c1ccc(O)c2cc(Nc3ccccc3)ccc12 5.01 µM
O=C(CSc1nc(-c2ccc(F)cc2)nc2c1Cc1ccccc1O2)Nc1ccc(C(=O)O)cc1 15.8 µM
CCOc1ccc(C(=O)O/N=C(\N)c2ccccn2)cc1 12.6 µM
Cc1nc2sc(-c3ccccc3)cc2c(=O)n1N 20 µM

outcome, inactive:
CCn1c(CCC(=O)O)nc2cc(S(=O)(=O)N(C)C)ccc21
CCCn1c(N)c(N2CCCCC2)c(=O)n(CC(=O)Nc2ccc(C(C)=O)cc2)c1=O
COC(=O)c1ccc(OC)c(CN2C(=O)N(c3ccc(C(C)=O)cc3)S(=O)(=O)c3ccccc32)c1
Cc1ccc(CNC(=O)C(C(C)C)N2Cc3ccccc3C2=O)cc1 (stereo not given)
